Measured values taken from the supplement of paper PMC11417369.
The other results are listed elsewhere or left out.

These sequences were tested on PfSIP2 AP2 domain 1 (GST-tagged) (assay: gcPBM binding intensity (ln(normalized median fluorescence intensity)); higher = stronger DNA binding).
Method in brief: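 Binding intensity values are the highest Masliner-normalised natural-log median intensity among replicate spots of either probe orientation. The binding step lasted 1 h in 1× PBS with 1% milk, 0.2 mg/ml BSA, 0.5% salmon testes DNA and 0.03% Triton X-100, using GST-tagged P. falciparum DNA-binding domains expressed in E. coli on an Agilent 4 × 180k array of primer-extended double-stranded 36-bp intergenic genomic probes plus negative controls. Alexa488 anti-GST antibody and a 488 nm scan detected bound protein.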

| Sequence | gcPBM binding intensity (ln) |
| --- | --- |
| ATATTACATATGTGCTGTACGCAATATATTATATCT [XGTACX_site1520] | 7.04 |
| AAGAACTTTAATAAGTGTACATTTATTGGAAACATG [XGTACX_site2995] | 7.08 |
| ATAATTACATAGATTGGTACACATTTTTGATTGTAT [XGTACX_site3802] | 7 |
| TTAAAAATGTGTGTGCGTACATAATATTTCGAAAAA [XGTACX_site8197] | 7.03 |
| GTACAAATGATTAATCCTTTACTTATATATATATAT [XGTACX_negctrl_site138] | 9.37 |
| CATTTTTTTTTATAAATACACACGTACGGGTGCATA [CACACA_site1569] | 10.9 |
| TTCTGGCAAAATAACACACACATATATTTTATATAC [CACACA_site3242] | 7.92 |
| TTCTTAAAAAAAAATAAAATAAAAAAAAAAATAAAA [CACACA_negctrl_site99] | 6.68 |
| GAACATTTACGCCCCACACACCTACCAACAAAAAAA [CACACA_site7746] | 7.74 |
| TTTTTCATATGACACACACACAAAAATAATGTGGAA [CACACA_site7692] | 6.99 |
| AAATGAACACGAAAGGAAAAAAAAATATATATATAT [CACACA_negctrl_site267] | 9.21 |
| TCATTTTATTATTCTACACACTTATCTATAATTATA [CACACA_site34] | 7.2 |
| ATTTGCAGTATTTCGGAACACACAAACATAAATATG [CACACA_site8726] | 6.95 |
| TATAAAAAATTCTTCCTTATTTTATGATATATATAT [TGCATGCA_negctrl_site57] | 8.4 |
| TATTCCTATAAAAAAACACACACATATAAATATATA [CACACA_site8727] | 6.95 |
| AAATATATTTCACGCACACACACCCCAAATAAATTT [CACACA_site3820] | 7.32 |
| ATATTTCAAAATGAAAGTACATATAAAAATTATACA [XGTACX_site3787] | 6.93 |
| AAGTATTTTTTTACATGTACATATATATATATATAT [XGTACX_site5065] | 9.81 |
| AAATAGATAAGTAGGACACACATATATATATATTAA [CACACA_site1862] | 6.96 |
| CAAAAACATACCTACACACACAATATGTATTTATAA [CACACA_site5862] | 6.97 |
| AAATGAATATTCATAGTGCAATATATAAATGAAAAT | 7.94 |
| TTTAATTATTAGTGTGCACACAACTATGAGTTTTTA [CACACA_site8997] | 8.35 |
| AATTACATTCAATTCTGTACTAATAGTAATTCAAAA [XGTACX_site7419] | 7.12 |
| GAGAAAAATAAATACACACACATAAATAAATACATA [CACACA_site5102] | 6.97 |
| TATGTATATTTTAATTGTACGTGTATGGTTGTAAAT [XGTACX_site8738] | 7.36 |
